Results taken from PubChem BioAssay AID1768 (National Center for Advancing Translational Sciences (NCATS), 2009).
Several values for one entry are separate records, joined by “and”; a condition that tells them apart may be missing. Equal entries are not always repeated. Out of some 270,000 compounds screened, about 620 (0.23%) were called active. This list was built around the results that the source calls inconclusive (neither active nor inactive); the mix of calls is not that of the screen. Calls follow the shape of the dose curve; as a rule, active = well fitted inhibition curve with a large enough effect in the polarisation, with a control signal flat (not every such curve was filed as active); inconclusive = small, poorly fitted or top-dose-only effect, or effect the other way, or a change in a side signal; inactive = no such curve, though single readings can be large or run the other way; the % refers to the polarisation. Potencies beside an inconclusive call are fits to weak or partial responses and may not hold up. A note “side channel” means that the fit belongs to a control or component signal, not to the main read-out.

molecular target: Menin (Homo sapiens) (UniProt O00255); test: qHTS Assay for Inhibitors Targeting the Menin-MLL Interaction in MLL Related Leukemias: Competition With Texas Red Labeled MLL-derived Mutant Peptide; settings: fluorescence polarization; series mostly up to 61.6 µM
Potency is read from the fitted curve at half-maximal effect; tags tell the direction and shape of the fitted curve or compound fluorescence and quenching.

Sequence of UniProt O00255 (O00255 whole entry, looked up): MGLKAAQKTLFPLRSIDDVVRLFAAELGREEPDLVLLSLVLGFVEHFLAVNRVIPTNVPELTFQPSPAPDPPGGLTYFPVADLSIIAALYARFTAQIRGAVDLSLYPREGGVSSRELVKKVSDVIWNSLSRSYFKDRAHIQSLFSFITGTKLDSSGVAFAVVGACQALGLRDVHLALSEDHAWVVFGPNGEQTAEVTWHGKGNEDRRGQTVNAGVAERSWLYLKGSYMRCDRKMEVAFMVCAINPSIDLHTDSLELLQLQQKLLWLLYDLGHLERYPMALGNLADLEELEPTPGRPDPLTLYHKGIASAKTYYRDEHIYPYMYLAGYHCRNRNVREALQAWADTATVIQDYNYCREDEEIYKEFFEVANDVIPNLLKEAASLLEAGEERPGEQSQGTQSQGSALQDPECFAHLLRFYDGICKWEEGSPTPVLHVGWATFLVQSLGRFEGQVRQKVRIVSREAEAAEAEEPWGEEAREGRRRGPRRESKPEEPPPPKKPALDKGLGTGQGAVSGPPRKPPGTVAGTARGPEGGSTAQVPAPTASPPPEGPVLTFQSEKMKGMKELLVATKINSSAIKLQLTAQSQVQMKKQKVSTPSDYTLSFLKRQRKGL

Structure (SMILES)	Potency
O=C(Cn1nnc(-c2ccccc2)n1)N/N=C/c1cccc([N+](=O)[O-])c1O	inconclusive: 20 µM [quencher, partial curve]
Cc1ccc(S(=O)(=O)Nc2ccccc2CNc2cccc(C)n2)cc1	inconclusive: 25.1 µM [quencher, side channel, single point]
CC(C)Cn1c(-c2ccc(Cl)cc2)cnc1SCC(=O)N1CCOCC1	inconclusive: 3.98 µM [inhibitor, full curve, poor fit]
Cc1ccc(C(=O)Nc2nc(=O)n(C(=O)c3ccccc3C)s2)cc1	inconclusive: 20 µM [quencher, side channel, partial curve]
c1cn2cc(-c3ccc4c(c3)OCO4)nc2s1	inactive
O=c1[nH]c(CN2CCN(c3ccc(O)cc3)CC2)nc2scc(-c3ccc(Cl)cc3)c12	inconclusive: 3.55 µM [quencher, side channel, partial curve]
CCOc1ccc(Nc2nc(-c3cccnc3)cs2)cc1	inconclusive: 14.1 µM [quencher, side channel, partial curve]
CO[C@H]1COC(=O)[C@@H](CCSC)NC(=O)C/C=C\[C@@H](C)[C@H](OC)COC(=O)[C@@H](OCc2ccccc2)/C=C\[C@@H]1C	inconclusive: 2.82 µM [quencher, side channel, partial curve]
COc1ccc(/C=C2\Oc3cc(OCC(=O)N4CCC[C@H]4C(=O)O)ccc3C2=O)cc1OC	inconclusive: 17.8 µM [quencher, side channel, single point]
Cc1ccc(C(c2nnnn2C2CCCCC2)N(C)C2CCCCC2)cc1 (stereo not given)	inconclusive: 5.01 µM [fluorescent, side channel, full curve, poor fit]
COc1ccc(C(CC(=O)Nc2ccc(Cl)cc2F)NC(=O)C(F)(F)F)cc1 (stereo not given)	inconclusive: 31.6 µM [inhibitor, partial curve]
Cc1cc(C)c(S(=O)(=O)N2CCCC2=O)cc1N(C)S(C)(=O)=O	inconclusive: 22.4 µM [inhibitor, partial curve]
Clc1ccc2nc3ccccn3c2c1	inactive
COc1ccccc1CCC(=O)OCC(=O)Nc1ccc(S(N)(=O)=O)cc1	inconclusive: 39.8 µM [fluorescent, side channel, single point]
COc1ccc(-c2cnn3c(N)c(S(=O)(=O)c4ccccc4)cnc23)cc1	inconclusive: 8.91 µM [quencher, side channel, full curve]
CCc1cc(/C(Cc2ccc3ccccc3n2)=N\O)c(O)cc1O	inconclusive: 31.6 µM [quencher, side channel, partial curve]
O=C(C1CCCN(Cc2cc(Br)ccc2O)C1)N1CCCCC1 (stereo not given)	inconclusive: 15.8 µM [inhibitor, partial curve]
CN1/C(=C/c2cccc[n+]2C)Sc2ccccc21	inactive

Structure (SMILES)	Potency
CC(C)Cn1c(N)c(C(=O)COC(=O)c2cc(C(F)(F)F)nc3c(C(F)(F)F)cccc23)c(=O)n(C)c1=O	inconclusive: 39.8 µM [fluorescent, single point]
c1ccn2cc(C34CC5CC(CC(C5)C3)C4)nc2c1	inconclusive: 12.6 µM [fluorescent, side channel, partial curve, poor fit]
Oc1ccccc1-c1cc(-c2ccccc2Cl)[nH]n1	inconclusive: 22.4 µM [quencher, side channel, partial curve]
Cn1cc(C=C2C(=O)Nc3cccnc32)c2ccccc21	inconclusive: 22.4 µM [quencher, side channel, single point] and inconclusive: 17.8 µM [quencher, side channel, partial curve]
CCO[C@@H]1OC(C(=O)N2CCN(Cc3ccc4c(c3)OCO4)CC2)=C[C@H](C2CC2)[C@H]1CCCO	inconclusive: 8.91 µM [fluorescent, side channel, partial curve]
CC(=O)Nc1cccc(Oc2ccc([N+](=O)[O-])cc2Cl)c1	inconclusive: 28.2 µM [quencher, side channel, partial curve]
CC(=O)Nc1ccc(S(=O)(=O)Nc2cc(C)cn(Cc3ccccc3)c2=O)cc1	inconclusive: 39.8 µM [fluorescent, side channel, single point]
COc1ccccc1NC(=O)c1cc(C(=O)Nc2ccccc2OC)cc(N2C(=O)CCC2=O)c1	inconclusive: 22.4 µM [inhibitor, partial curve]
Cc1ccc2nc(-c3cccc(NC(=O)c4ccco4)c3)[nH]c2c1	inconclusive: 39.8 µM [quencher, side channel, single point]
Cc1ccc(C(=O)N/N=C/c2c(O)ccc3ccccc23)cn1	inconclusive: 11.2 µM [quencher, side channel, partial curve]
Cc1ccc(OCC(=O)Nc2ccc(N3CCN(C(=O)c4ccco4)CC3)cc2)c(C)c1	inactive
CN(C)S(=O)(=O)Oc1ccc(C(=O)Nc2cccc(Cl)c2)cc1	inconclusive: 6.31 µM [quencher, side channel, full curve, poor fit]
Cc1cc(C)c(NC(=S)N2CCN(c3ccc([N+](=O)[O-])cn3)CC2)cc1C	inconclusive: 39.8 µM [inhibitor, single point]
Nc1ccc(Oc2ncccn2)cc1	inconclusive: 39.8 µM [inhibitor, single point]
CC(C(=O)NC1CCCC1)N(C(=O)Cn1nnc(-c2ccc(F)cc2)n1)c1ccccc1F (stereo not given)	inconclusive: 14.1 µM [inhibitor, partial curve, poor fit]
CCOC(=O)C1=C(C)n2c(s/c(=C3\C(=O)Nc4ccccc43)c2=O)=NC1c1ccc(OC)cc1 (stereo not given)	inconclusive: 25.1 µM [quencher, side channel, single point]
COc1cccc(C2CC(c3ccccc3)=NN2S(=O)(=O)c2ccc(C)cc2)c1OC (stereo not given)	inconclusive: 22.4 µM [fluorescent, side channel, partial curve]
